Test results reported in PMC12040169 (PLOS Biology, 2025).
This is one part of the list.

test system: T1, C. trachomatis L2/434/Bu expressing GFP (CTL2-GFP); parameters: species or system HeLa; C. trachomatis total inclusion area by high-content imaging, normalised to DMSO; conditions: total inclusion area; 28.5 h, 10 µM; inhibitor
T1 construct: L2/434/Bu GFP intracellular growth in HeLa cells
Method in brief: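 Host cell viability was gauged from Hoechst-stained nuclei counts, while chlamydial growth was taken from total inclusion area and inclusion number per well. Cells were fixed and imaged by high-content microscopy once bulk GFP and resorufin fluorescence had been measured.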

| Compound | % of control remaining |
| --- | --- |
| CC(C)N1CCC(N(C)Cc2c[nH]nc2C(C)(C)C)CC1 [CBK283002] | 83.4557 |
| Nc1ccc(/C=C/c2cccc(C(=O)O)n2)cc1 [CBK267711] | 110.062 |
| CCNC(=O)N1CCC[C@@H](O)[C@H](NC(=O)c2ccc(OC)cc2)C1 [CBK289066] | 91.7449 |
| CC(C)Cn1c(SCC(=O)N2CCNC2=O)nnc1-c1ccco1 [CBK295175] | 87.4228 |
| COc1ccc(S(=O)(=O)Nc2nc(C)c(C(=O)Nc3ccc(F)cc3)s2)cc1OC [CBK050538] | 89.0227 |
| CC(C)c1c(N)nc(SCc2ccccc2)nc1Cl [CBK016721] | 92.5944 |
| O=c1[nH]c2n[nH]c(=O)n2c2c(-c3ccccc3)c[nH]c12 [CBK288054] | 108.135 |
| CCCC(C(=O)O)N1C(=O)C(=Cc2ccc(-c3ccc(C(=O)OCC)cc3)o2)SC1=S (stereo not shown) [CBK296983] | 105.037 |
| CN(C)CCCOc1ccc2c(c1)Sc1ccccc1CC2=O [CBK058002] | 99.7547 |
| Cc1ccc(OCC(=O)Nc2ccccc2CO)cc1 [CBK263600] | 122.906 |
| COc1ccccc1NCC(=O)n1nc(C)cc1C [CBK263879] | 83.5591 |
| O=S(=O)(NC1CCCC1)c1cccc(-c2nnc(-c3ccccc3)o2)c1 [CBK265716] | 94.4741 |
| CCc1nn2c(=O)cc(CN3CCN(C(=O)c4cccs4)CC3)nc2s1 [CBK306474] | 113.602 |
| Cc1cccnc1C(NC(=O)C1CCN(C(=O)N2CCCC2)CC1)c1cccs1 (stereo not shown) [CBK060124] | 106.952 |
| N#Cc1ccc(CNC(=O)N2CCCC(CO)C2)cc1 (stereo not shown) [CBK156043] | 113.232 |
| CN(C(=O)C1CCN(C(=S)NCc2ccccc2)CC1)C(c1ccccc1)c1ccccn1 (stereo not shown) [CBK060476] | 106.844 |
| COCC(=O)N[C@H]1C[C@H]2C(=O)Nc3ccccc3C(=O)N2C1 [CBK289353] | 75.9366 |
| S=C(Nc1ccccc1Cl)Nc1ccccc1-n1cccc1 [CBK018806] | 0 |
| CCc1ccc(NC(=O)N2CCCCC2CCn2ccnc2)cc1 (stereo not shown) [CBK307453] | 70.4464 |
| O=C(O)CCCn1cc(NC(=O)c2ccccc2Br)cn1 [CBK270100] | 81.4366 |
| CN1CCC(N2C[C@H](O)C[C@H]2c2nc(-c3ccc4c(c3)OCO4)no2)CC1 [CBK288931] | 100.823 |

| Compound | % of control remaining |
| --- | --- |
| Cc1cccc(-n2ncc3c2ncn2c(COc4ccccc4C)nnc32)c1 [CBK265567] | 101.221 |
| Cc1ccccc1CNC(=O)c1ccc(C)c([N+](=O)[O-])c1 [CBK264010] | 107.03 |
| CC(=O)Nc1cccc(-c2ccc(C(=O)NCc3ccc(F)cc3)c(N3CCN(C(=O)c4ccco4)CC3)n2)c1 [CBK106012] | 93.8268 |
| O=C(NCCCN1CCc2ccccc2C1)C1CC1c1ccco1 (stereo not shown) [CBK305257] | 71.2334 |
| S=C(Nc1ccccc1)c1ccccc1 [CBK005397] | 56.2985 |
| CC(=O)Nc1cccc(-c2cnc(Nc3ccc(N4CCOCC4)cc3)c3nccn23)c1 [CBK091235] | 129.463 |
| O=C(Cn1cc(Br)ccc1=O)NC1CCN(Cc2ccccc2)CC1 [CBK305671] | 69.5832 |
| FC(F)(F)c1cc(-c2cc(Nc3ccc4[nH]ccc4c3)ncn2)cc(C(F)(F)F)c1 [CBK090855] | 89.521 |
| COC(=O)c1c(NC(=O)c2ccncc2)sc2c1CCC2 [CBK262637] | 109.142 |
| CCOC(=O)c1c(NC(=O)c2nn3c(C(F)(F)F)cc(-c4cccs4)nc3c2Cl)sc2c1CCCC2 [CBK262539] | 105.54 |
| COc1cc(CNC(C)(C)CO)c(Cl)cc1OC(C)C [CBK269542] | 92.8095 |
| COc1cccc(C(=O)NNC(=O)c2ccc(F)cc2)c1 [CBK261705] | 96.3104 |
| O=C(NCc1ccccn1)c1ccccc1Nc1cccc(C(F)(F)F)c1 [CBK107252] | 85.2616 |
| CC1CCc2nc(NS(=O)(=O)c3ccccc3)sc2C1 (stereo not shown) [CBK026915] | 93.3679 |
| CC(=O)OC(COc1ccc(F)cc1)Cn1cnc2ccccc21 (stereo not shown) [CBK266162] | 103.348 |
| O=C(CC1SCCNC1=O)NCc1ccccc1 (stereo not shown) [CBK270202] | 54.9873 |
| COc1cc(/C=C(\C#N)c2nc3ccccc3n2C)cc([N+](=O)[O-])c1O [CBK263893] | 115.818 |
| COc1ccc(CCN2C(=O)CC(C(=O)O)S/C2=N\c2ccc(Cl)cc2)cc1OC (stereo not shown) [CBK263286] | 109.234 |
| CCc1nn2c(=O)cc(CN3C(=O)NC(C)(c4ccco4)C3=O)nc2s1 (stereo not shown) [CBK305880] | 59.5835 |
| CS(=O)(=O)N(CC(=O)N1CCN(C(c2ccccc2)c2ccccc2)CC1)c1cccc(F)c1 [CBK266330] | 111.077 |
| O=C(Cn1c(=O)n(Cc2ccco2)c2ncccc21)N1CCCCC1 [CBK283862] | 75.6666 |

| Compound | % of control remaining |
| --- | --- |
| COc1ccc(NS(=O)(=O)c2cccc(Cl)c2C)c(C(=O)NCc2ccccc2)c1 [CBK113953] | 108.505 |
| O=S(=O)(Cc1ccc(Cl)cc1)Nc1cccc2[nH]ccc12 [CBK153531] | 77.5074 |
| O=C1NC(N2CCCC2)=NOc2nnc(Cl)cc21 [CBK024856] | 75.8804 |
| CC(C)NCC(O)COC1CCC(C(C)(C)C)CC1 (stereo not shown) [CBK029007C] | 54.6025 |
| O=C(NC(C(=O)c1ccccc1)N1CCCCC1)c1ccccc1 (stereo not shown) [CBK261035] | 70.211 |
| CC(C)(CNC(=O)Cn1cnc2ccccc21)N1CCCCC1 [CBK281879] | 109.288 |
| CC(NC(=O)N(Cc1cccc2ccccc12)C1CCC(N)CC1)c1cccc2ccccc12 (stereo not shown) [CBK000482C] | 27.7465 |
| CS(=O)(=O)N(CC(=O)O)c1cccc2ccccc12 [CBK262420] | 105.748 |
| Cc1noc(C)c1CC(=O)NCc1ccc(CN2CCCCC2)cc1 [CBK281422] | 105.956 |
| O=C1c2ccc(Oc3cccc(Oc4ccc5c(c4)C(=O)N(CCO)C5=O)c3)cc2C(=O)N1CCO [CBK261398] | 103.507 |
| NC(CC(=O)O)c1ccc(OCc2ccccc2)cc1 (stereo not shown) [CBK286999] | 108.555 |
| COc1ccccc1-c1nc(C2CCCN(C(=O)NCCc3cccs3)C2)n2ccccc12 (stereo not shown) [CBK047163] | 98.8827 |
| COCCOCCCN1CCC2(CC1)NC(=O)Cc1ccc(C)cc12 [CBK040222] | 98.4763 |
| N#CCCNCC1COc2ccccc2O1 (stereo not shown) [CBK026615] | 91.6436 |
| O=C1NC(=O)C2(CCN(Cc3ccccc3)CC2)N1 [CBK005078] | 62.3858 |
| OCCNc1nc(Nc2ccc(Cl)cc2)nc(N2CCCCC2)n1 [CBK266638] | 113.103 |
| OCCn1nc(C2CCCC2)nc1CCc1c[nH]c2ccccc12 [CBK307509] | 75.3276 |
| O=C(Nc1cccc(F)c1)C(c1ccccc1)N1CCOCC1 (stereo not shown) [CBK269191] | 99.38 |
| COC1C(O)C(CO)OC1n1cc(F)c(SC)nc1=O (stereo not shown) [CBK201267] | 111.465 |
| CNC(=S)NCCc1c[nH]c2ccccc12 [CBK264853] | 113.248 |
| COc1ccc(C)cc1C1(CNC(=O)C2CCC(N)C2)CCOCC1 (stereo not shown) [CBK304312C] | 125.801 |

| Compound | % of control remaining |
| --- | --- |
| CC(C)(C)NC(=O)COc1ccc(CNc2ccc(C(=O)O)c(Cl)c2)cc1 [CBK287230] | 112.152 |
| Cc1ccc2oc(CN3CCn4cnnc4C3)c(C)c2c1 [CBK283075] | 90.6357 |
| CCn1c2ccccc2c2cc(CN(CCN(C)C)Cc3ccccc3)ccc21 [CBK261924] | 85.6773 |
| Cc1ccc2c(c1)nc(CNC(=O)NCCc1nc(C)no1)n2C [CBK305552] | 42.1303 |
| CCOc1cc(/C=C/c2nc(O)c([N+](=O)[O-])c(=O)[nH]2)ccc1OCC(N)=O [CBK267337] | 116.646 |
| Cc1ccc2c(c1)N(CC(N)=O)C(=O)CO2 [CBK270208] | 97.7272 |
| O=C(O)CC1C(=O)NCCN1Cc1c(F)cccc1Cl (stereo not shown) [CBK287157] | 98.6558 |
| Cc1noc(C)c1C(=O)NC1Cc2ccccc2C1 [CBK200350] | 103.167 |
| COC(=O)c1ccc(-c2ccsc2)nc1 [CBK149229] | 94.8432 |
| Cc1nc2ccc(C(=O)OCc3ccc(S(=O)(=O)Cc4ccccc4)cc3)cc2nc1C [CBK269661] | 111.339 |
| COc1ccc(CN2CCC(Cc3ccccc3-c3ccc(C)cc3C)(C(=O)O)CC2)cc1 [CBK286421] | 103.202 |
| O=C(O)C1CCN(c2cncc(-c3ccc(F)cc3F)n2)CC1 [CBK065899] | 123.199 |
| COc1ccc(C2(NCc3cn(CC(N)=O)c4ccccc34)CC2)cc1 [CBK282833] | 84.0579 |
| O=C(Nc1ccc(OC(F)F)cc1)Nc1ncc(Br)c2cccnc12 [CBK107635] | 102.837 |
| Cc1ccn(CCNC(=O)CCN2Cc3ccccc3C2=O)n1 [CBK282655] | 91.3849 |
| N#CCCN1CCC2(CC1)NCCc1c2[nH]c2ccccc12 [CBK039788] | 109.78 |
| CCNC(=O)C1(Cc2ccccc2-c2ccccc2C)CCN(C(=O)c2ccccc2)CC1 [CBK285716] | 94.3768 |
| CCOCc1nc2c(c(NCc3cc(C)on3)n1)CCN(C(C)=O)CC2 [CBK307512] | 60.7346 |
| CC(C)(Oc1ccc(Cl)cc1)C(=O)O/N=C(\N)c1ccc(I)cc1 [CBK268760] | 106.511 |
